Data reported in PubChem BioAssay AID624296 (National Center for Advancing Translational Sciences (NCATS), 2012).
The campaign covered roughly 350,000 compounds. About 9,900 (2.8%) were called active. This list was built around the results that the source calls inconclusive (neither active nor inactive); the mix of calls is not that of the screen. Calls follow the shape of the dose curve; as a rule, active = well fitted activation curve with a large enough effect; inconclusive = small, poorly fitted or top-dose-only effect; inactive = no such curve, though single readings can be large or run the other way. Potencies of inconclusive entries are left out as doubtful fits.
Potency is read from the fitted curve at half-maximal effect; tags tell the direction and shape of the fitted curve.

Test: A quantitative high throughput screen for small molecules that induce DNA re-replication in MCF 10a normal breast cells. Also: nearly all actives have a fitted effect of over 50% in size.
Conditions: MCF 10A DNA re-replication, Hoechst nuclear intensity, 48 h; series mostly up to 46.1 µM
In the case of Cc1ccc(-c2nn(-c3ccccc3)cc2CSC(=N)N)cc1, the Potency is reported as inconclusive [activator, single point].
For CC(C)c1ccc(C2NC(=O)NC3=C2CCc2ccccc23)cc1 (centres undefined), the Potency was inconclusive [activator, single point].
For N#CC1=C(N)N2C(=C(C#N)C1c1ccc(Br)cc1)Nc1ccccc12 (centres undefined), the Potency was active: 2.06 µM.
In the case of NS(=O)(=O)c1ccc(CNC(=S)NC2CCCCC2)cc1, the Potency is reported as inconclusive [activator, full curve, poor fit].
In the case of CCOc1ccc(S(=O)(=O)N2CCN(Cc3ccc4c(c3)OCO4)CC2)cc1Cl, the Potency is reported as inconclusive [activator, partial curve, poor fit].
In the case of Cc1ccc(/C=N/NC(=S)Nc2cccc(S(=O)(=O)N(C)C)c2)o1, the Potency is reported as inconclusive [activator, single point].
For OC(CN1CCN(c2ccccc2Cl)CC1)c1ccccc1 (centres undefined), the Potency was inconclusive [activator, single point].
With COc1cccc(C2C3=C(CC(C)(C)CC3=O)OC(N)=C2[N+](=O)[O-])c1 (centres undefined) the Potency was “inactive”.
With COc1ccc(-c2nn(C)c(=O)c3ccccc23)cc1NC(=O)Cn1nc(C)c2ccccc2c1=O the Potency was “inactive”.
For COc1ccc(NC(=O)C(NCC(C)C)c2ccccc2)cc1Cl (centres undefined), the Potency was inconclusive [activator, single point].
In the case of CC1CCC(C(C)C)C(OCC(O)CN2CCN(Cc3ccccc3)CC2)C1 (centres undefined), the Potency is reported as inconclusive [activator, single point].
For CN1C(=O)/C(=C/c2ccccc2F)Sc2ccc(C(=O)NCC3CCCO3)cc21 (centres undefined), the Potency was inconclusive [activator, single point].
In the case of CCc1nnc(NC(=O)c2ccc(S(C)(=O)=O)cc2)s1, the Potency is reported as inconclusive [activator, single point].
In the case of S=c1nc(-c2cc(Cl)cc(Cl)c2)[nH][nH]1, the Potency is reported as “inactive”.
For Cc1c(C(C)C)c(=O)n(-c2ccc(S(=O)(=O)NC3CCCCC3)cc2)n1C, the Potency was inconclusive [activator, partial curve, poor fit].
In the case of CC(C)(C)c1ccccc1OCCCCN1CCCC1, the Potency is reported as inconclusive [activator, partial curve, poor fit].
In the case of Cc1cccc(CSc2nnc([C@@H]3CCCN3)o2)c1, the Potency is reported as inconclusive [activator, single point].
With O=[N+]([O-])c1ccc(Sc2cc[n+]([O-])c3ccccc23)c([N+](=O)[O-])c1 the Potency was “inactive”.
With COc1cc(NC(=O)c2ccccc2Cl)c2ncccc2c1 the Potency was active: 4.61 µM.
